Laboratory results: article PMC4336329 (PLoS ONE, 2015)
Out of some 310,000 compounds screened, about 2,200 (0.71%) showed an effect of 50% or more. Effects have a minus sign here. The list shows a part of the results.

These molecules were tested against human ether-à-go-go-related gene (hERG) potassium channel (human, UniProt Q12809) (assay: primary screen, population patch clamp on CHO cells stably expressing hERG).
human ether-à-go-go-related gene (hERG) potassium channel, sequence (Q12809 whole entry, looked up): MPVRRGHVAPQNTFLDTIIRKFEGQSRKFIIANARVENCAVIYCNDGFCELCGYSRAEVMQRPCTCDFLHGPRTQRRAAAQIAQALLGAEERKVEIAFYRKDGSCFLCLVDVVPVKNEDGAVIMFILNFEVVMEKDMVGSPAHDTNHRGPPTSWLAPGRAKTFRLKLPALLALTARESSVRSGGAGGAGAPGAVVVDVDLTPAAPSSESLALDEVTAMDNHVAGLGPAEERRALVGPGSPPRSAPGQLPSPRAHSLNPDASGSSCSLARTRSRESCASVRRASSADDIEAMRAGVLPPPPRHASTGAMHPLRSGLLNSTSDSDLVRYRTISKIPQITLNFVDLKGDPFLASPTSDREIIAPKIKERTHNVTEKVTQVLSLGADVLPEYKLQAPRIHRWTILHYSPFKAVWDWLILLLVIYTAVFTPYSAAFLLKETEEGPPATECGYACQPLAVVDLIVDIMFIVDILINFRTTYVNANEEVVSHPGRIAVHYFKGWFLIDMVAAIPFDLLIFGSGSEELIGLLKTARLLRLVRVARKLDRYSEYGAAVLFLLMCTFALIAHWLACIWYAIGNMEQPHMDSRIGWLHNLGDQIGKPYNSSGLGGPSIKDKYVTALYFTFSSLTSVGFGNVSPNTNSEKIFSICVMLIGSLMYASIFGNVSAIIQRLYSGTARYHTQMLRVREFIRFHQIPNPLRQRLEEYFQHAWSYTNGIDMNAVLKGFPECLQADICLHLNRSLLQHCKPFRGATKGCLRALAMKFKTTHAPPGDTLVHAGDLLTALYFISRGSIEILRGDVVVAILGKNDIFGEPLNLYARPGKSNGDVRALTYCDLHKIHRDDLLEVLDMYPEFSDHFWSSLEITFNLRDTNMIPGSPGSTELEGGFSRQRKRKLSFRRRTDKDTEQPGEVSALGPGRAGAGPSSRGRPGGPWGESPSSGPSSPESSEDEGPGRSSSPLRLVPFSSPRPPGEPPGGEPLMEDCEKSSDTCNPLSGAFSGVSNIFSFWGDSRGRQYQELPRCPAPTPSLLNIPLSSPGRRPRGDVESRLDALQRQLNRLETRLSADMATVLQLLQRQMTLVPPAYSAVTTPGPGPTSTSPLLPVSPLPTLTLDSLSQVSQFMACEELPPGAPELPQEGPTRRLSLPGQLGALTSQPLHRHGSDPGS

Row | Structure (SMILES) | hERG current change (%, negative = inhibition) at 1uM [%]
1 | CCCN(CCC)C(=O)Cc1ccc(F)cc1 | 14.4
2 | CCOc1ccc(NC(=O)CN(C)C(=O)c2csc3c2CCCC3)cc1OCC | 5.23
3 | Cn1ccnc1C(=O)c1cc(SCC(=O)NCc2ccccc2)nc2ccccc12 | 9.83
4 | O=C(NNC(=O)C1CCN(c2ncccn2)CC1)c1ccncc1 | 11.3
5 | O=C(/C=C/c1ccc(Cl)cc1Cl)N(Cc1ccccc1)C1CCS(=O)(=O)C1 (stereo not drawn) | 4.57
6 | O=C(/C=C/Nc1ccccc1Br)c1ccccn1 | -8.06
7 | CC(=O)Nc1ccc(N=Cc2nc(-c3ccc(C)cc3)oc2O)cc1 | 1.06
8 | C=CCc1ccc(OCC(O)CN2CCCCC2)c(OC)c1 (stereo not drawn) | -16.5
9 | O=C(CN1C(=O)CCS(=O)(=O)c2ccccc21)NCCc1ccccc1 | 11.5
10 | CCOC(=O)CN1C(=O)/C(=C/c2ccc(Cl)cc2)Oc2ccccc21 | 10
11 | CCS(=O)(=O)c1ccc(O)c(NC(=O)NC2CCCCC2)c1 | 14
12 | COC(=O)c1ccc2[nH]c([C@H](C)O)c([C@H](C)O)c2c1 | 6.01
13 | CC(CN1CCOCC1)C(=O)O.Cl (stereo not drawn) | -5.33
14 | O=C(c1cnccn1)N(Cc1cccs1)C1(C(=O)NC2CCCCC2)CCCCC1 | -8.69
15 | C/C(=N\NC(=O)c1cccc(N/N=C(\C)c2ccccc2)c1)c1ccccc1 | 2.46
16 | CC(=O)Nc1cccc(NC(=O)c2cc([N+](=O)[O-])ccc2N2CCCCC2)c1 | 2.94
17 | COc1ccc2cc(C(=O)N3CCN(c4ccc(F)cc4)CC3)[nH]c2c1 | 9.32
18 | CCN(CC)S(=O)(=O)c1cccc(C(=O)Oc2cccc(NC(=O)c3cccs3)c2)c1 | 7.05
19 | COc1cc(NC(=O)c2cc3sccc3n2C)cc(OC)c1 | -2.3
20 | CCN(CC)c1ccc(/C=N/NC(=O)CNC(=O)c2ccccn2)cc1 | -7.85
21 | O=C(NCC(=O)N(Cc1ccco1)C(C(=O)NC1CCCCC1)c1cccnc1)c1cccs1 (stereo not drawn) | 0.518
22 | COc1ccc(Cl)cc1NC(=O)CSc1nnc(CNC(=O)c2ccco2)o1 | -4.59
23 | O=C(OC1CCOC1=O)C1CCN(S(=O)(=O)c2ccc(Cl)c(C(F)(F)F)c2)CC1 (stereo not drawn) | 13.1

Row | Structure (SMILES) | hERG current change (%, negative = inhibition) at 1uM [%]
24 | Cc1ccc(C(=O)NCC(=O)NC2CCC(C)CC2)s1 (stereo not drawn) | 16.3
25 | Cn1nnc(NC(=S)NC(=O)c2ccco2)n1 | 14.3
26 | CCc1cccc(NC(=O)CNC(=O)N2CC(=O)Nc3ccccc32)c1 | -0.0846
27 | Cc1cc(C(=O)O[C@H]2[C@H](C)NS(=O)(=O)[C@H]3C[C@@H]4C=C[C@]23O4)cc([N+](=O)[O-])c1 | 9.78
28 | O=C(N/C(=C/c1ccco1)C(=O)N1CCCC1)c1cccs1 | 10.1
29 | CC(NC(=O)c1ccc(C(F)(F)F)cc1)C(c1ccccc1)N1CCOCC1 (stereo not drawn) | 3.26
30 | COc1ccc(C(=O)OCC(=O)NCCCc2ccccc2)cc1OC | 10.3
31 | Cn1cc(S(=O)(=O)N2CCCC2)cc1C(=O)NCc1ccc(Cl)cc1 | 4.72
32 | NS(=O)(=O)c1ccc(CNC(=O)CNC(=O)c2ccc(Br)o2)cc1 | 19.7
33 | Cc1[nH][nH]c(=O)c1C(c1ccccc1[N+](=O)[O-])C(C#N)C#N (stereo not drawn) | 16
34 | O=C(CCc1ccc(S(=O)(=O)N2CCOCC2)cc1)NCCCN1CCCC1=O | 8.23
35 | CC(C)Cn1c(SCC(=O)NCCCN2CCCC2=O)nc2ccccc21 | 19.8
36 | COc1ccc2c(c1)N(C(=O)CN1C(=O)C3CCCCC3C1=O)C(C)(C)C=C2C (stereo not drawn) | 13.1
37 | O=C(Cn1ncc2c(=O)oc3ccccc3c21)NCCC1=CCCCC1 | 13.2
38 | O=C(NC(=O)c1ccccc1)C1=C(N2CCCC2)COC1=O | 9.76
39 | COC(=O)c1ccc(S(=O)(=O)NNC(=O)COc2ccc(C)cc2)cc1 | 14
40 | CSc1ccccc1NC(=O)CSCc1ccccc1Br | 11.2
41 | CN(C)c1ccc(/C=N/NC(=O)c2nnn(-c3nonc3N)c2COc2ccc(F)cc2)cc1 | 12.3
42 | COc1ccccc1C(C)NC(=O)c1cc(S(=O)(=O)N2CCCCC2)ccc1C (stereo not drawn) | 11
43 | CCSc1nnc(SCC(=O)NNC(=O)c2ccccc2F)s1 | 16.3
44 | Cc1onc(-c2ccccc2Cl)c1C(=O)NCC1CCCO1 (stereo not drawn) | 2.91
45 | Cc1cc(C)n(CC2CC(=O)N(c3ccc(C)c(Cl)c3)C2=O)n1 (stereo not drawn) | 4.16
46 | COc1ccc(N2C(=O)CSC2c2cccs2)cc1 (stereo not drawn) | 8.29

Row | Structure (SMILES) | hERG current change (%, negative = inhibition) at 1uM [%]
47 | NS(=O)(=O)c1ccc(CCNC(=O)C2CCN(S(=O)(=O)c3ccccc3)CC2)cc1 | 6.13
48 | O=C(COC(=O)c1c(F)cccc1Cl)NC(=O)Nc1ccc2c(c1)OCCO2 | 12.1
49 | Cc1cc2c(cc1S(=O)(=O)N1CCN(c3ccccc3)CC1)OCCN2C | 3.14
50 | CCN(CC)S(=O)(=O)c1ccc(NN=C2CCN(C(C)C)CC2)c([N+](=O)[O-])c1 | -10.8
51 | CC1CCCC(C)N1C(=O)CSc1nccc(=O)[nH]1 (stereo not drawn) | 1.24
52 | O=c1[nH]cc(F)c(=O)[nH]1 | 9.67
53 | C1CCCN(c2nc3nonc3nc2N2CCCCCC2)CC1 | 11.4
54 | Cc1ccc(S(=O)(=O)Nc2cnn(-c3ccccc3)c(=O)c2Cl)cc1 | 10.4
55 | CCN1C(=O)NC(=O)/C(=C\c2cn(CC(=O)N3CCCC3)c3ccccc23)C1=O | 14
56 | CCOc1ccccc1NS(=O)(=O)c1ccc2c(c1)n(C)c(=O)c(=O)n2C | -4.69
57 | C=CCn1c(C)cc(C(=O)Cn2c(C(C)O)nc3ccccc32)c1C (stereo not drawn) | 8.41
58 | CC(C)COP(=O)(CNC(=O)CN1C(=O)c2ccccc2S1(=O)=O)OCC(C)C | 22.8
59 | Cc1cccn2cc(CNS(=O)(=O)c3ccc4ccccc4c3)nc12 | 0.869
60 | Cc1ccc(C2(O)CN(c3ccccc3)C3=[N+]2CCS3)cc1.[Br-] (stereo not drawn) | 1.35
61 | CC(=O)c1cccc(NC(=O)N2CCCC2C(=O)NCCc2ccccc2)c1 (stereo not drawn) | 0.0778
62 | Cc1ccc(/C=C2\SC(=S)N(CCCC(=O)NC3CCCC3)C2=O)cc1 | -4.88
63 | CCCP(=O)(CC(=O)N(CC)CC)c1ccccc1 (stereo not drawn) | 0.791
64 | Cc1ccc(Nc2nc(N/N=C\c3ccc4c(c3)OCO4)nc(N3CCOCC3)n2)cc1 | 1.66
65 | COc1ccc(S(=O)(=O)N2CCN(C(=O)c3ccc(C)o3)CC2)cc1 | 6.74
66 | CCN(Cc1ccccc1)c1ccc(/C=N/N=C(N)N)cc1 | -2.06
67 | Cc1cc(OCC(O)CNC(C)(C)C)ccc1Cl.Cl (stereo not drawn) | 4.8
68 | O=C1NC(=O)N(Cc2ccco2)C(=O)/C1=C\c1cccn1CCOc1ccccc1 | 14.3
69 | CC(C)NS(=O)(=O)c1ccc(Oc2ncc(C(F)(F)F)cc2Cl)cc1 | 13.9

Row | Structure (SMILES) | hERG current change (%, negative = inhibition) at 1uM [%]
70 | Cc1cc(Nc2ccc3c(c2)OCCO3)c2cc(Cl)ccc2n1.Cl | 6.09
71 | CC(C)(C)Nc1nc(SCC(=O)Nc2ccccc2Cl)nc(N2CCOCC2)n1 | 7.43
72 | N#CC1=C(N)NC(SCC(=O)Nc2ccc(Br)cc2)=C(C#N)C12CCCCC2 | 17.5
73 | CC(C)/C=N/NC(=O)c1ccc(Cl)cc1 | 6.18
74 | CC(C)CC(=O)N1CCN(Cc2ccc(C(F)(F)F)cc2)CC1 | 14.8
75 | CCCNC(=O)c1ccccc1NC(=O)Nc1ccccc1C | 16
76 | CCOc1cccc(/C=N/NC(=O)c2cc(C3CC3)[nH]n2)c1O | 14.2
77 | O=C(NNC1CC(=O)N(c2ccc(Br)cc2)C1=O)c1cccnc1 (stereo not drawn) | 4.86
78 | Cc1nn(-c2ccccc2)c(C)c1NC(=O)COC(=O)/C=C/c1ccccc1 | 4.15
79 | Cc1ccc(SCC(=O)Nc2ccc(-c3nc4ccccc4[nH]3)cc2)cc1 | 18
80 | CC1CCCN(CC(O)COC(c2ccccc2)c2ccccc2)C1 (stereo not drawn) | -15
81 | COc1ccccc1N1CCN(CCN2C(=O)C3CCCCN3C2=O)CC1 (stereo not drawn) | 12.7
82 | Cc1nnsc1SC(C)C(=O)O (stereo not drawn) | 9.05
83 | CCc1ccc(-c2cn3nc(-c4ccccc4)cnc3n2)cc1 | 4.28
84 | CCOC(=O)C(=O)Nc1ccccc1C(=O)Nc1ccc(OC)cc1 | 11
85 | C/C(=N/NS(=O)(=O)c1ccc(C)cc1)c1ccc(NC(=O)C(F)(F)F)cc1 | 1.22
86 | CCOC(=O)C(=O)N1CCC(C(=O)OCC)CC1 | 6.02
87 | Cc1ccc(-c2cn3cccnc3n2)cc1NC(=O)c1ccc(Br)o1 | 11.9
88 | Cc1ccc(F)cc1NC(=O)CCNC(=O)c1ccc([N+](=O)[O-])cc1 | 3.53
89 | O=C(CSc1nnc(SCc2ccccc2)s1)N/N=C/C=C/c1ccco1 | -1.13
90 | Nc1ccn(CC(=O)NCc2ccc3c(c2)OCO3)c(=O)n1 | 14.1
